Among the data in paper PMC12820563 are binding signal (RPM ratio (pull-down/input)) values, retold here.

Some of the results follow. The list includes weakly bound sequences.

This experiment concerns the target T1, MBP-FoxP3dN (UniProt Q99JB6).
T1 sequence: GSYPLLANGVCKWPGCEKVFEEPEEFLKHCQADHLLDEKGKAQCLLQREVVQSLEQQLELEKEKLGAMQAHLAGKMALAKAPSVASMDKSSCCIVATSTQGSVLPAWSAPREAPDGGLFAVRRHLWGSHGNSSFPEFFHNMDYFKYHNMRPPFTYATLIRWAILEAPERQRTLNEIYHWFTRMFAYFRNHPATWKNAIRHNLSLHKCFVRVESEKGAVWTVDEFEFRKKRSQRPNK
As to the kind of experiment: PD-seq (MBP pull-down with sequencing). The note with it: 20 mM Tris-HCl pH 7.5, 100 mM NaCl, 1.5 mM MgCl2, 0.4 uM protein, 0.1 uM dsDNA library, 30 min, room temperature, amylose pull-down; high values mean tight binding; double strand, one strand shown.
For “GATGATTGTTCTCCCAGCTGATGAATTGTGGTTCTCGAGTAAACAAATTTTCCTAATCTTTCTGTTCAAGCGCCATCTAC”, the binding signal (RPM ratio (pull-down/input)) came to 1.7.
Consider “GATGATTGTTCTCCCAGCTGATGAATTGGTGAGTTCGAGTAAACAAATTTTCCTAATCTTTCTGTTCAAGCGCCATCTAC”, for which the binding signal (RPM ratio (pull-down/input)) came to 1.06.
In the case of “GATGATTGTTCTCCCAGCTGATGAATTGCCGCGATCGAGTAAACAAATTTTCCTAATCTTTCTGTTCAAGCGCCATCTAC”, the binding signal (RPM ratio (pull-down/input)) came out at 0.765.
To “GATGATTGTTCTCCCAGCTGATGAATTGTATTTTTCGAGTAAACAAATTTTCCTAATCTTTCTGTTCAAGCGCCATCTAC” belongs 3.78; to “GATGATTGTTCTCCCAGCTGATGAATTGAATTGCTCGAGTAAACAAATTTTCCTAATCTTTCTGTTCAAGCGCCATCTAC”, 0.968.
To “GATGATTGTTCTCCCAGCTGATGAATTTCTCCCTTCGAGTAAACAAATTTTCCTAATCTTTCTGTTCAAGCGCCATCTAC” belongs 0.249; to “GATGATTGTTCTCCCAGCTGATGAATTGTCTATCTCGAGTAAACAAATTTTCCTAATCTTTCTGTTCAAGCGCCATCTAC”, 0.982.
To “GATGATTGTTCTCCCAGCTGATGAATTGTACTTCTCGAGTAAACAAATTTTCCTAATCTTTCTGTTCAAGCGCCATCTAC” belongs 0.521; to “GATGATTGTTCTCCCAGCTGATGAATTCGAGCCCTCGAGTAAACAAATTTTCCTAATCTTTCTGTTCAAGCGCCATCTAC”, 0.346; to “GATGATTGTTCTCCCAGCTGATGAATTCAACGCATCGAGTAAACAAATTTTCCTAATCTTTCTGTTCAAGCGCCATCTAC”, 0.942.
For the sequence “GATGATTGTTCTCCCAGCTGATGAATTTCCGATCTCGAGTAAACAAATTTTCCTAATCTTTCTGTTCAAGCGCCATCTAC”, the binding signal (RPM ratio (pull-down/input)) is 0.257.
As for “GATGATTGTTCTCCCAGCTGATGAATTCTCGACTTCGAGTAAACAAATTTTCCTAATCTTTCTGTTCAAGCGCCATCTAC”, the figure is 0.42.
On to “GATGATTGTTCTCCCAGCTGATGAATTCCATTCTTCGAGTAAACAAATTTTCCTAATCTTTCTGTTCAAGCGCCATCTAC”, for which the binding signal (RPM ratio (pull-down/input)) worked out at 0.367.
As for “GATGATTGTTCTCCCAGCTGATGAATTCATCAAATCGAGTAAACAAATTTTCCTAATCTTTCTGTTCAAGCGCCATCTAC”, the figure is 0.256.
Take “GATGATTGTTCTCCCAGCTGATGAATTAGCACGTTCGAGTAAACAAATTTTCCTAATCTTTCTGTTCAAGCGCCATCTAC”: the binding signal (RPM ratio (pull-down/input)) turned out to be 0.484.
As for “GATGATTGTTCTCCCAGCTGATGAATTGACGTCGTCGAGTAAACAAATTTTCCTAATCTTTCTGTTCAAGCGCCATCTAC”, the figure is 0.561; as for “GATGATTGTTCTCCCAGCTGATGAATTTCGTCGATCGAGTAAACAAATTTTCCTAATCTTTCTGTTCAAGCGCCATCTAC”, 0.362; as for “GATGATTGTTCTCCCAGCTGATGAATTCCACCTGTCGAGTAAACAAATTTTCCTAATCTTTCTGTTCAAGCGCCATCTAC”, 0.3.
Take “GATGATTGTTCTCCCAGCTGATGAATTTAGAAAGTCGAGTAAACAAATTTTCCTAATCTTTCTGTTCAAGCGCCATCTAC”: the binding signal (RPM ratio (pull-down/input)) was 0.256.
In the case of “GATGATTGTTCTCCCAGCTGATGAATTAGCTGTTTCGAGTAAACAAATTTTCCTAATCTTTCTGTTCAAGCGCCATCTAC”, the binding signal (RPM ratio (pull-down/input)) was 3.19.
With “GATGATTGTTCTCCCAGCTGATGAATTCGCCCATTCGAGTAAACAAATTTTCCTAATCTTTCTGTTCAAGCGCCATCTAC”, the binding signal (RPM ratio (pull-down/input)) was 0.4.
As for “GATGATTGTTCTCCCAGCTGATGAATTGGGGCGTTCGAGTAAACAAATTTTCCTAATCTTTCTGTTCAAGCGCCATCTAC”, the binding signal (RPM ratio (pull-down/input)) turned out to be 1.01.
As for “GATGATTGTTCTCCCAGCTGATGAATTCAGTATTTCGAGTAAACAAATTTTCCTAATCTTTCTGTTCAAGCGCCATCTAC”, the figure is 2.18; as for “GATGATTGTTCTCCCAGCTGATGAATTGATATCCTCGAGTAAACAAATTTTCCTAATCTTTCTGTTCAAGCGCCATCTAC”, 0.672.
As to “GATGATTGTTCTCCCAGCTGATGAATTATACCGGTCGAGTAAACAAATTTTCCTAATCTTTCTGTTCAAGCGCCATCTAC”, the binding signal (RPM ratio (pull-down/input)) worked out at 0.324.
As for “GATGATTGTTCTCCCAGCTGATGAATTTCTTAAATCGAGTAAACAAATTTTCCTAATCTTTCTGTTCAAGCGCCATCTAC”, the binding signal (RPM ratio (pull-down/input)) turned out to be 0.192.
Take “GATGATTGTTCTCCCAGCTGATGAATTCGTTCCTTCGAGTAAACAAATTTTCCTAATCTTTCTGTTCAAGCGCCATCTAC”: the binding signal (RPM ratio (pull-down/input)) amounted to 0.423.
On to “GATGATTGTTCTCCCAGCTGATGAATTCGAAGCGTCGAGTAAACAAATTTTCCTAATCTTTCTGTTCAAGCGCCATCTAC”, for which the binding signal (RPM ratio (pull-down/input)) was 0.43.
To “GATGATTGTTCTCCCAGCTGATGAATTCTAGAACTCGAGTAAACAAATTTTCCTAATCTTTCTGTTCAAGCGCCATCTAC” belongs 0.183.
To “GATGATTGTTCTCCCAGCTGATGAATTAATCTACTCGAGTAAACAAATTTTCCTAATCTTTCTGTTCAAGCGCCATCTAC” belongs 0.434.
Turning to “GATGATTGTTCTCCCAGCTGATGAATTAGCCAGCTCGAGTAAACAAATTTTCCTAATCTTTCTGTTCAAGCGCCATCTAC”, the binding signal (RPM ratio (pull-down/input)) came out at 0.244.
For the sequence “GATGATTGTTCTCCCAGCTGATGAATTGGCGCACTCGAGTAAACAAATTTTCCTAATCTTTCTGTTCAAGCGCCATCTAC”, the binding signal (RPM ratio (pull-down/input)) was 0.684.
As for “GATGATTGTTCTCCCAGCTGATGAATTCGAATGGTCGAGTAAACAAATTTTCCTAATCTTTCTGTTCAAGCGCCATCTAC”, the figure is 0.503.
As for “GATGATTGTTCTCCCAGCTGATGAATTAACGGTATCGAGTAAACAAATTTTCCTAATCTTTCTGTTCAAGCGCCATCTAC”, the figure is 0.454; as for “GATGATTGTTCTCCCAGCTGATGAATTCCGAAGATCGAGTAAACAAATTTTCCTAATCTTTCTGTTCAAGCGCCATCTAC”, 0.193.
To “GATGATTGTTCTCCCAGCTGATGAATTAGCTAGTTCGAGTAAACAAATTTTCCTAATCTTTCTGTTCAAGCGCCATCTAC” belongs 1.19.
As to “GATGATTGTTCTCCCAGCTGATGAATTGGCGGACTCGAGTAAACAAATTTTCCTAATCTTTCTGTTCAAGCGCCATCTAC”, the binding signal (RPM ratio (pull-down/input)) worked out at 0.314.
In the case of “GATGATTGTTCTCCCAGCTGATGAATTGGTATAGTCGAGTAAACAAATTTTCCTAATCTTTCTGTTCAAGCGCCATCTAC”, the binding signal (RPM ratio (pull-down/input)) turned out to be 1.24.
As for “GATGATTGTTCTCCCAGCTGATGAATTACCCCATTCGAGTAAACAAATTTTCCTAATCTTTCTGTTCAAGCGCCATCTAC”, the figure is 0.3; as for “GATGATTGTTCTCCCAGCTGATGAATTTAGTGGTTCGAGTAAACAAATTTTCCTAATCTTTCTGTTCAAGCGCCATCTAC”, 2.12; as for “GATGATTGTTCTCCCAGCTGATGAATTGCTCGAGTCGAGTAAACAAATTTTCCTAATCTTTCTGTTCAAGCGCCATCTAC”, 0.36.
“GATGATTGTTCTCCCAGCTGATGAATTCCGTCAATCGAGTAAACAAATTTTCCTAATCTTTCTGTTCAAGCGCCATCTAC”: the binding signal (RPM ratio (pull-down/input)) worked out at 0.393.
For the sequence “GATGATTGTTCTCCCAGCTGATGAATTCGCAATGTCGAGTAAACAAATTTTCCTAATCTTTCTGTTCAAGCGCCATCTAC”, the binding signal (RPM ratio (pull-down/input)) is 1.31.
On to “GATGATTGTTCTCCCAGCTGATGAATTTCGGCAATCGAGTAAACAAATTTTCCTAATCTTTCTGTTCAAGCGCCATCTAC”, for which the binding signal (RPM ratio (pull-down/input)) was 2.11.
“GATGATTGTTCTCCCAGCTGATGAATTGTATCCTTCGAGTAAACAAATTTTCCTAATCTTTCTGTTCAAGCGCCATCTAC”: the binding signal (RPM ratio (pull-down/input)) came to 1.61.
“GATGATTGTTCTCCCAGCTGATGAATTGTGCCCGTCGAGTAAACAAATTTTCCTAATCTTTCTGTTCAAGCGCCATCTAC”: the binding signal (RPM ratio (pull-down/input)) is 3.2.
Consider “GATGATTGTTCTCCCAGCTGATGAATTTAGGCGTTCGAGTAAACAAATTTTCCTAATCTTTCTGTTCAAGCGCCATCTAC”, for which the binding signal (RPM ratio (pull-down/input)) was 1.51.
As for “GATGATTGTTCTCCCAGCTGATGAATTCAGGAGGTCGAGTAAACAAATTTTCCTAATCTTTCTGTTCAAGCGCCATCTAC”, the figure is 0.192.
As for “GATGATTGTTCTCCCAGCTGATGAATTATTTCGGTCGAGTAAACAAATTTTCCTAATCTTTCTGTTCAAGCGCCATCTAC”, the figure is 0.309; as for “GATGATTGTTCTCCCAGCTGATGAATTAGCTCCTTCGAGTAAACAAATTTTCCTAATCTTTCTGTTCAAGCGCCATCTAC”, 0.293; as for “GATGATTGTTCTCCCAGCTGATGAATTCCGTATGTCGAGTAAACAAATTTTCCTAATCTTTCTGTTCAAGCGCCATCTAC”, 2.71.
Turning to “GATGATTGTTCTCCCAGCTGATGAATTATCAAAGTCGAGTAAACAAATTTTCCTAATCTTTCTGTTCAAGCGCCATCTAC”, the binding signal (RPM ratio (pull-down/input)) turned out to be 0.195.
For “GATGATTGTTCTCCCAGCTGATGAATTGTACGGTTCGAGTAAACAAATTTTCCTAATCTTTCTGTTCAAGCGCCATCTAC”, the binding signal (RPM ratio (pull-down/input)) stood at 0.452.
As for “GATGATTGTTCTCCCAGCTGATGAATTGGATCACTCGAGTAAACAAATTTTCCTAATCTTTCTGTTCAAGCGCCATCTAC”, the figure is 0.489; as for “GATGATTGTTCTCCCAGCTGATGAATTGCCGACATCGAGTAAACAAATTTTCCTAATCTTTCTGTTCAAGCGCCATCTAC”, 0.714; as for “GATGATTGTTCTCCCAGCTGATGAATTGATAGTCTCGAGTAAACAAATTTTCCTAATCTTTCTGTTCAAGCGCCATCTAC”, 0.784.
With “GATGATTGTTCTCCCAGCTGATGAATTCTCATCATCGAGTAAACAAATTTTCCTAATCTTTCTGTTCAAGCGCCATCTAC”, the binding signal (RPM ratio (pull-down/input)) was found to be 0.379.
In the case of “GATGATTGTTCTCCCAGCTGATGAATTGAGGTTCTCGAGTAAACAAATTTTCCTAATCTTTCTGTTCAAGCGCCATCTAC”, the binding signal (RPM ratio (pull-down/input)) worked out at 0.641.
As for “GATGATTGTTCTCCCAGCTGATGAATTTAGTGTCTCGAGTAAACAAATTTTCCTAATCTTTCTGTTCAAGCGCCATCTAC”, the figure is 2.93.
In the case of “GATGATTGTTCTCCCAGCTGATGAATTGTTTGTGTCGAGTAAACAAATTTTCCTAATCTTTCTGTTCAAGCGCCATCTAC”, the binding signal (RPM ratio (pull-down/input)) was found to be 8.22.
For “GATGATTGTTCTCCCAGCTGATGAATTGTTTGGCTCGAGTAAACAAATTTTCCTAATCTTTCTGTTCAAGCGCCATCTAC”, the binding signal (RPM ratio (pull-down/input)) is 3.57.
As for “GATGATTGTTCTCCCAGCTGATGAATTGACATTTTCGAGTAAACAAATTTTCCTAATCTTTCTGTTCAAGCGCCATCTAC”, the figure is 0.513; as for “GATGATTGTTCTCCCAGCTGATGAATTGTGATTCTCGAGTAAACAAATTTTCCTAATCTTTCTGTTCAAGCGCCATCTAC”, 2.37.
